# Data published in PubChem BioAssay AID1671188 (National Center for Advancing Translational Sciences (NCATS), 2021).
# In all, about 100,000 compounds went through this assay and about 250 (0.25%) were called active. Inconclusive means that the source gave no clear call. Such entries were picked first, then a sample of the others. Calls come from the whole dose curve; as a rule, active = well fitted inhibition curve with a large enough effect; inconclusive = small, poorly fitted or top-dose-only effect; inactive = flat fitted curve, though single readings scatter. No potency is given beside an inconclusive call; the fits are too rough.
# Biological target: Alanine aminotransferase 2 (Homo sapiens) (UniProt Q8TD30)
# Sequence of UniProt Q8TD30 (Q8TD30 whole entry, looked up): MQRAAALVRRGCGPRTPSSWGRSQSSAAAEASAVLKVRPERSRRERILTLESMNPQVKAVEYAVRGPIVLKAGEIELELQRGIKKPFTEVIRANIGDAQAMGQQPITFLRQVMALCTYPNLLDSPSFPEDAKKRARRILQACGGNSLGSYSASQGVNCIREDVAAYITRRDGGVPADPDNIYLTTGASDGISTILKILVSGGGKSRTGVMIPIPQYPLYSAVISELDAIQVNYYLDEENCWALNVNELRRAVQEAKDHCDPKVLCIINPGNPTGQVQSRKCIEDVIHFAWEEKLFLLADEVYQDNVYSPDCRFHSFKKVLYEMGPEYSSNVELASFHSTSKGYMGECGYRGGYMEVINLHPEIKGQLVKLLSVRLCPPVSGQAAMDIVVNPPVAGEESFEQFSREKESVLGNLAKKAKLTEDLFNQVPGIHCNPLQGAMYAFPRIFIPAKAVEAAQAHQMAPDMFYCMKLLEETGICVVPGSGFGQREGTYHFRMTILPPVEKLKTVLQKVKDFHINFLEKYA
# Experiment: Primary qHTS assay for inhibitors of Glutamate pyruvate transaminase 2 (GPT2); note: nearly all actives have a fitted effect of over 60% in size
# Conditions: Recombinant GPT2, coupled pyruvate oxidase/HRP Amplex Red fluorescence; activity change, negative = inhibition: at 57.7 µM (top of the series) unless noted; series mostly up to 57.7 µM
# How it was run: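 Fluorescence read-out: pyruvate from GPT2 turnover coupled to pyruvate oxidase, HRP and Amplex Red (0.2mM ThPP, 0.2U/mL PO and HRP, 50uM Amplex final). Substrates 250uM a-KG, 2mM L-alanine; enzyme 10ng/uL; 30 min RT.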
# % is set by controls: 0 for no effect and ±100 for the full control effect; potency is the fitted concentration of half-maximal effect; tags give direction and shape of the fitted curve.
SMILES,"activity change, negative = inhibition",outcome,Potency
COc1ccc(-n2nc(C)c([C@H]3C=C[C@@H](OC(=O)Nc4cccc(F)c4)C3)c2C)cc1,inactive: -5.57% [at 88.5 µM],–,–
CN1CC2(CCCN(C(=O)c3cn(C)c4ccccc34)CC2)OC1=O (stereo unspecified),–,inactive [at 11.5 µM],–
CN1CC2(CCCN(C(=O)CCc3ccccc3Cl)CC2)OC1=O (stereo unspecified),–,inactive,–
COC(=O)c1ccc2nc(CO[C@H]3CN(Cc4ccccc4C)C[C@H]3F)[nH]c2c1,–,–,"inconclusive [inhibitor, full curve, poor fit]"
Cc1ncc2c(c1CNC(=O)c1ccc3cccnc3c1O)CCNC2,–,–,"inconclusive [inhibitor, single point]"
COc1c2c(c(C)c3c1C(=O)OC3)O[C@@]1(C)CC(O)C(C(C)(C)O)[C@](C)(CCC(=O)O)[C@H]1C2 (stereo partly specified),–,–,"inconclusive [inhibitor, single point]"
COC[C@@H]1[C@H](NC(=O)c2csc(C)c2-c2ccccc2)[C@@H]2CCO[C@H]12,–,–,"inconclusive [inhibitor, partial curve, poor fit]"
O=C(NC1CCCN(c2ccnc3ccnn23)C1)c1ccc(Cl)cc1 (stereo unspecified),inactive: -5.66%,–,–
O=[S+]([O-])(c1ccccc1)N1CCc2nc(C3CC3)nc(-c3ccc(Cl)cc3)c2CC1,–,–,"inconclusive [inhibitor, partial curve, poor fit]"
CN1C[C@@H](N)C[C@H]1C(=O)N1CCC2(CC1)Nc1ccccc1NC2=O,–,–,"inconclusive [inhibitor, partial curve, poor fit]"
N#Cc1cccc(CN[C@H]2[C@H](O)[C@H](O)C[C@@H]2c2cccnc2)c1,–,–,"inconclusive [inhibitor, single point]"
Cc1cc(C)n(CCC(=O)NCC2CCN(c3cc(-c4ccccc4)[nH]n3)CC2)n1,–,–,"inconclusive [inhibitor, partial curve, poor fit]"
Cc1noc2c(N3CCN(Cc4ccccc4)CC3)cc(-c3cccnc3)nc12,–,–,"inconclusive [inhibitor, partial curve, poor fit]"
O=C(NC1CCCCC1)c1cn2cc(-c3cccc(C(F)(F)F)c3)sc2n1,inactive: 1.23%,–,–
Cc1ccc(C2Cn3nnc(C(=O)N4CCN(C(=O)c5ccc(N(C)C)cc5)CC4)c3CO2)cc1 (stereo unspecified),–,–,"inconclusive [inhibitor, single point]"
O=C1NCc2ccc(-c3cc4c(ccn4Cc4cccnc4)c(C4=CCOCC4)n3)cc21,–,–,"inconclusive [inhibitor, single point]"
O=C(Nc1cccn2nc(C3CCC3)nc12)c1cccc(C(F)(F)F)c1,–,–,"inconclusive [inhibitor, full curve]"
CC(C)=CCC[C@](C)(O[C@@H]1O[C@H](CO[C@@H]2O[C@H](CO)[C@@H](O)[C@H](O)[C@H]2O)[C@@H](O)[C@H](O)[C@H]1O)C1CC[C@]2(C)[C@@H]1[C@H](O)CC1[C@@]3(C)CC[C@H](O[C@@H]4O[C@H](CO)[C@@H](O)[C@H](O)[C@H]4O[C@@H]4O[C@H](CO)[C@@H](O)[C@H](O)[C@H]4O)C(C)(C)[C@@H]3CC[C@]12C (stereo partly specified),inactive: -28.2% [at 17.1 µM],–,–
O=C1CC(c2ccccc2)N(S(=O)(=O)c2ccc3c(c2)OCCO3)CCCCCN1 (stereo unspecified),–,inactive,–
COc1c(C)c2c(c(O)c1C/C=C(\C)CCC(=O)O)C(=O)OC2,–,–,"inconclusive [inhibitor, single point]"
CC(=O)N1CCC(NCc2cccnc2Oc2ccccc2C)CC1,–,–,"inconclusive [inhibitor, single point]"

SMILES,"activity change, negative = inhibition",outcome,Potency
Cc1oc(C2CCN(C(=O)CCC(=O)n3nc(C)c4ccccc43)CC2)nc1C(=O)N1CCCC1,–,inactive,–
COc1ccc(C(=O)N[C@H]2C[C@@H](c3nc(-c4cncnc4)no3)N(C)C2)cc1,–,inactive [at 88.5 µM],–
CNS(=O)(=O)c1ccc(CCC(=O)N2Cc3nnc(C)n3C(C)C2)cc1 (stereo unspecified),–,–,"inconclusive [inhibitor, full curve, poor fit]"
COCc1c(O)c(C(=O)O)c(C)c2c1OC(=O)c1c(C)cc(O)c(CO)c1O2,–,–,"inconclusive [inhibitor, partial curve, poor fit]"
CCn1nccc1C(=O)NCc1cc(C)cc2c(C)c(-c3ccccc3)[nH]c12,inactive: -19.6% [at 11.5 µM],–,–
Cc1ccc(C2(C(=O)N3CCC(n4nc(-c5ccccc5)oc4=O)CC3)CC2)cc1,–,–,"inconclusive [inhibitor, single point]"
Cc1ccnc(NS(=O)(=O)c2ccc(NC(=O)Nc3ccc(S(=O)(=O)Nc4nccc(C)n4)cc3)cc2)n1,–,–,"inconclusive [inhibitor, full curve]"
O=C(Cc1c(F)cccc1Cl)N1CCN(c2cc(-c3cccs3)[nH]n2)CC1,–,inactive,–
COc1ccccc1OCc1cc(C(=O)NCc2cccc(C)c2)n[nH]1,inactive: 3.88%,–,–
CC(C)C[C@@H]1N[C@H](C(=O)O)Cc2cn(Cc3nccn3C)c3cccc1c23,–,–,"inconclusive [inhibitor, single point]"
O=C(c1nnc(CNc2ccc(OC(F)(F)F)cc2)n1-c1ccccc1)N1CCC[C@@H]1CN1CCCC1,–,–,"inconclusive [inhibitor, single point]"
CCOCc1nc(C2CCCN(C(=O)c3ccc(OC)cc3)C2)no1 (stereo unspecified),inactive: 2.2%,–,–
CCOc1ccccc1CN1CCC2(CCN(CCc3ccc(OC)cc3)CC2)Oc2ccccc21,–,–,"inconclusive [inhibitor, single point]"
c1ccc(CN2Cc3[nH]cnc3C[C@H]2c2nc(-c3ccccc3)no2)cc1,–,–,"inconclusive [inhibitor, single point]"
O=C(N1CCC(Cc2nc(-c3ccccc3)n[nH]2)C1)C1(c2ccccc2)CC1 (stereo unspecified),–,inactive,–
COCCn1c(=O)c(C(=O)N2CCN(C(=O)c3ccc(OC)cc3)CC2)nc2cccnc21,–,inactive,–
O=C(CCc1ccccc1)N1CCC(N2CC3CC(C2)[C@H]2CCCC(=O)N2C3)CC1 (stereo partly specified),–,–,"inconclusive [inhibitor, single point]"
CCCCCNC(=O)c1nc2cccnc2n(CCCC)c1=O,–,–,"inconclusive [inhibitor, single point]"
O=C(CNC(=O)c1cccc(C(F)(F)F)c1)N[C@@H]1CCN(Cc2ccc(Cl)cc2)C1,–,–,"inconclusive [inhibitor, single point]"
CN1C[C@H](O)C[C@H]1c1nc(-c2ccc(OC(F)(F)F)cc2)no1,–,–,"inconclusive [inhibitor, single point]"
CC(=O)Nc1cccc(-c2ccc3c(n2)CN(Cc2nc4ccccc4s2)C(=O)CO3)c1,inactive: -10.2%,–,–

SMILES,"activity change, negative = inhibition",outcome,Potency
Cc1nc(-c2cn(C3CCCN(C(=O)c4cccc(F)c4)C3)nn2)no1 (stereo unspecified),–,–,"inconclusive [inhibitor, single point]"
COc1ccc(N2Cc3c(ncnc3N3CCC(Cc4ccccc4)CC3)N(C)CC2=O)cc1,–,–,"inconclusive [inhibitor, single point]"
CCn1cc(S(=O)(=O)N2CCC3(CC2)CC(N2CCOCC2)CCO3)cn1 (stereo unspecified),inactive: -3.43%,–,–
O=C(NCc1ccccc1)c1c(-c2cccnc2)cc(=O)n2c1CCCC2,–,–,"inconclusive [inhibitor, partial curve]"
CC(=O)N1CCc2nc(-c3ccccc3)nc(-c3ccc(Cl)cc3)c2C1,–,–,"inconclusive [inhibitor, single point]"
CCOc1ccccc1C(=O)NC1CCN(c2cc(-c3ccccc3)[nH]n2)C1 (stereo unspecified),–,–,"inconclusive [inhibitor, single point]"
Cn1nc(C2CCCC2)cc1NC(=O)c1ccc(Cl)cc1,–,inactive [at 88.5 µM],–
COc1ccc(Cl)cc1NC(=O)CC1CCCCN(C)C1=O (stereo unspecified),–,–,"inconclusive [inhibitor, full curve, poor fit]"
O=C(Nc1ccccc1)N1CCN(c2nccc(Nc3ccccc3Cl)n2)CC1,–,–,"inconclusive [inhibitor, single point]"
O=C(c1ccccc1F)N1CCC(C(=O)N2CCC(N3CCCC3=O)CC2)CC1,inconclusive: -39.5% [inhibitor],–,–
COCC(=O)NC1CCC12CCN(S(=O)(=O)c1cccc3cccnc13)CC2 (stereo unspecified),–,–,"inconclusive [inhibitor, full curve, poor fit]"
CC(C)NC(=O)N[C@H]1CCN2C(=O)c3cc(-c4ccccc4F)ccc3NC(=O)[C@@H]2C1,–,–,"inconclusive [inhibitor, single point]"
O=C(c1ccc(C(F)(F)F)cc1)N1CCC2(CC1)C(=NC1CCCCC1)NC(=O)N2c1cc(F)cc(F)c1,–,–,"inconclusive [inhibitor, single point]"
CN(C)[C@@H]1CO[C@H](CNC(=O)c2ccncc2)[C@H]1O,inactive: -3.25% [at 88.5 µM],–,–
O=C(Nc1cccnc1)[C@@H]1C[C@@H](c2ccc(F)cc2)N([S+](=O)([O-])c2cccnc2)C1,inactive: -24.1% [at 88.5 µM],–,–
C[S+](=O)([O-])N1CCC(Cn2ccc3c(N4CCOCC4)nc(-c4ccc(F)cc4)cc32)CC1,–,–,"inconclusive [inhibitor, partial curve]"
CCc1noc(-c2cn(C3CCN(C(=O)c4ccc(Cl)s4)CC3)nn2)n1,–,–,"inconclusive [inhibitor, single point]"
COc1ccc(Cn2nc(C3CC3)nc2-c2c(F)cccc2Cl)cc1,–,–,"inconclusive [inhibitor, single point]"
Cn1nc(C2CCN(C(=O)CCC3CCCC3)CC2)c2c1CCOC2,–,–,"inconclusive [inhibitor, single point]"
